Results taken from PubChem BioAssay AID1479 (National Center for Advancing Translational Sciences (NCATS), 2009).
About 820 (0.29%) of roughly 280,000 compounds were called active. Inconclusive results, whose numbers are uncertain, are shown with a selection of clear calls. The call rests on the fitted dose curve; in most records, active means well fitted curve in either direction with a large enough effect; inconclusive means small, poorly fitted or top-dose-only effect; inactive means flat fitted curve, though single readings scatter. Potencies of inconclusive entries are left out as doubtful fits.
On the % scale 0 is the no-effect control and ±100 the full control effect; potency means the concentration at half of the fitted maximal effect; tags describe the fitted curve by direction and shape or compound fluorescence and quenching.

Test: Total Fluorescence Counterscreen for Inhibitors of the Interaction of Thyroid Hormone Receptor and Steroid Receptor Coregulator 2
Conditions: TRb/SRC2 Texas Red total fluorescence interference; series mostly up to 106 µM; fluorescence change, negative = quenching: at the top concentration
How it was run: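 Human TRb ligand-binding domain at 0.6 uM with 20 nM Texas Red SRC2 peptide in Tris buffer containing 1 uM T3 and 5% DMSO, incubated with compound 5 h at ambient temperature. Total fluorescence (555/632 nm) calculated as parallel + 2 × perpendicular.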
In the case of `CCOc1ccc(CCNC(=O)Cn2nc(CC)n3c(cc4sc(CC)cc43)c2=O)cc1OCC`, the Potency is reported as inconclusive [falling, full curve, poor fit]. For `CC(=O)OC(COc1ccccc1)Cn1cnc2cc(C)c(C)cc21` (stereo not drawn), the Potency was inconclusive [quencher, full curve]. For `O=C(O)c1ccc(N=c2oc3cc(O)ccc3cc2C(=O)NCc2ccccc2)cc1`, the “fluorescence change, negative = quenching” value (shortened to “fluorescence change”) was inactive: -10.5%. With `Cc1ccc(NC(=O)CSc2nc3nccnc3c(=O)n2CCc2c[nH]c3ccccc23)cc1` the Potency was active: 25.1 µM [quencher]. With `COc1cccc(N2CCN(C(=O)c3c(C)oc4ncnc(N5CCCCC5)c34)CC2)c1` the Potency was inconclusive [falling, full curve, poor fit]. With `Cc1nnsc1C(=O)N/N=C/c1ccccc1` the “fluorescence change” value was inactive: -23.5%. In the case of `Cc1ccc(F)c(C2C3C=CCCC3(C)C(=O)N2Cc2ccccc2)c1` (stereo not drawn), the “fluorescence change” value is reported as inactive: -0.381%. With `Cc1cc(Nc2cccc(C(F)(F)F)c2)ncn1` the Potency was inconclusive [falling, full curve, poor fit]. In the case of `Cc1ccccc1OCCSc1nc(C)c(Cc2ccccc2)c(=O)[nH]1`, the Potency is reported as active: 3.16 µM [quencher]. For `COc1ccc(-c2nnc(NC(=O)c3ccc(S(=O)(=O)N4COCC4(C)C)cc3)o2)cc1`, the “fluorescence change” value was inactive: 2.47%. For `COc1ccc(-c2cc(C3C4C=CCCC4(C)C(=O)N3Cc3ccccc3)ccc2F)cc1` (stereo not drawn), the “fluorescence change” value was inactive: -2.16%. With `CCO[C@H]1OC(C(=O)NCc2nc3ccccc3[nH]2)=C[C@@H](C)[C@@H]1CCCO` the “fluorescence change” value was inactive: -4.46%. In the case of `COc1ccc(-c2nn3c(-c4ccc(C)cc4)nnc3c3ccccc23)cc1`, the “fluorescence change” value is reported as inactive: -14.1%. For `O=C(Cn1cnc(S(=O)(=O)N2CCCC2)c1)Nc1ccccc1`, the Potency was inconclusive [falling, full curve, poor fit]. For `COC(=O)c1ccccc1NC(=O)/C=C/c1ccco1`, the Potency was active: 3.16 µM [quencher]. In the case of `CCCN1CCCc2cc(CN(CCCN3CCOCC3)C(=O)Nc3ccc(CC)cc3)ccc21`, the Potency is reported as inconclusive [quencher, full curve]. In the case of `NOCC(=O)O`, the Potency is reported as inconclusive [falling, partial curve, poor fit]. With `CC1=NN(c2ccc(Cl)c(C(=O)O)c2)C(=O)/C1=C\c1ccc(-c2ccc(C(=O)O)cc2)o1` the Potency was inconclusive [quencher, partial curve]. For `O=C(Nc1cccc(Cl)c1)c1csnn1`, the Potency was inconclusive [falling, partial curve, poor fit]. For `Cc1cc(C)c2c(=O)c(/C=C3\NC(=S)NC3=O)coc2c1`, the “fluorescence change” value was inactive: -1.47%. For `COc1ccc(N2C=C3C(=O)C(C)(OC(=O)C4CCCC4)C(=O)C=C3C=C2c2ccsc2)cc1` (stereo not drawn), the fluorescence change, negative = quenching was inactive: 2.02% [at 11.2 µM]. In the case of `Cc1cccc(NC(=O)Cn2cc(C(=O)c3ccco3)c3ccccc32)c1C`, the Potency is reported as inconclusive [falling, full curve, poor fit]. For `[O-][n+]1onc2c1CCC(=N/O)/C2=N\Nc1ccccc1`, the Potency was inconclusive [quencher, partial curve]. In the case of `COc1ccc(C)c2sc(N(Cc3cccnc3)C(=O)CCc3ccccc3)nc12`, the “fluorescence change” value is reported as inactive: 1.34%. In the case of `CCc1ccc(S(=O)(=O)/N=C2\C=CC(=O)c3ccccc32)cc1`, the “fluorescence change” value is reported as inactive: -3.38%. For `O=C(NCc1ccccc1Cl)c1ccc(NC(=O)N2CCCCc3ccccc32)cc1`, the Potency was inconclusive [falling, full curve, poor fit]. With `Cc1ccc(C(=O)c2oc3ccccc3c2NC(=O)Cc2coc3c(C)c(C)ccc23)cc1` the Potency was inconclusive [falling, partial curve, poor fit]. In the case of `COc1ccccc1C(=O)Nc1nnc(S(=O)(=O)N2CCCCCC2)s1`, the Potency is reported as inconclusive [quencher, partial curve]. With `CCOc1ccccc1C(=O)Nc1ccc(S(=O)(=O)N2CCCCC2c2cccnc2)cc1` (stereo not drawn) the Potency was inconclusive [falling, full curve, poor fit]. With `CC(C)CC(=O)NC(=S)Nc1ccc(Cl)cn1` the Potency was active: 3.98 µM [quencher]. In the case of `O=C(COC(=O)/C=C/C(=O)OCC(=O)NC12CC3CC(CC(C3)C1)C2)NC12CC3CC(CC(C3)C1)C2`, the Potency is reported as inconclusive [falling, full curve, poor fit]. For `Cc1ccc(/C=C(\C#N)C(=O)Nc2cccc(Cl)c2)o1`, the Potency was inconclusive [falling, full curve, poor fit]. In the case of `COc1ccc(-n2cnc3cc(C(=O)NC4CCCCCC4)ccc32)cc1`, the Potency is reported as inconclusive [falling, full curve, poor fit]. For `O=C1COc2cc(S(=O)(=O)CCC(=O)NC3CCCCC3)c(Cl)cc2N1`, the Potency was inconclusive [falling, partial curve, poor fit]. With `O=C(Nc1ccc(O)c(-c2nc3ccccc3o2)c1)c1ccc(Br)cc1` the Potency was inconclusive [quencher, partial curve]. For `CCCCOc1ccc(C(=O)Nc2ccc(N3CCN(C(C)=O)CC3)cc2)cc1`, the “fluorescence change” value was inactive: 1.09%. With `C=CCn1c(CSc2nnc(-c3ccccc3)n2C)n[nH]c1=S` the “fluorescence change” value was inactive: -8.98%. With `CCOc1cc(C(=O)Nc2ccc(NC(=O)c3cc4ccccc4o3)c(OC)c2)cc(OCC)c1OCC` the Potency was active: 35.5 µM [quencher]. In the case of `CCOc1ccc(/C=C2/SC(=O)NC2=S)cc1`, the “fluorescence change” value is reported as inactive: -6.44%. With `CCOc1ccc2nc(N3CCCC(C(=O)Nc4cc(C)ccc4C)C3)sc2c1` (stereo not drawn) the Potency was active: 20 µM [quencher]. With `O=C(NCc1ccccc1)C(c1ccc(F)cc1)N(Cc1cccs1)C(=O)c1cnccn1` (stereo not drawn) the Potency was inconclusive [quencher, partial curve]. In the case of `COc1ccc(/C=N\Nc2ccc([N+](=O)[O-])cc2[N+](=O)[O-])c(C(=O)O)c1OC`, the “fluorescence change” value is reported as inactive: -2.85%. With `COC(=O)c1sc2nc(-c3ccco3)ccc2c1N` the Potency was inconclusive [quencher, partial curve]. With `O=C(NCc1ccc(Cl)cc1)C(=O)Nc1cccc(Br)c1` the Potency was inconclusive [falling, full curve, poor fit]. For `COc1cc(/C=N/NC(=O)c2sc(N)c(C#N)c2C)cc(Br)c1O`, the Potency was inconclusive [quencher, partial curve]. For `O=C(NCCc1ccccc1)C(=O)NCC(c1cccnc1)N1CCN(c2ccc(F)cc2)CC1` (stereo not drawn), the Potency was inconclusive [falling, full curve, poor fit]. In the case of `O=C(CC1SC(=O)N(c2ccccc2)C1=O)Nc1ccc(Cl)cc1` (stereo not drawn), the “fluorescence change” value is reported as inactive: 0.833%. With `CC1CCCCC1NC(=O)COC(=O)c1c2c(nc3ccccc13)/C(=C/c1ccco1)CC2` (stereo not drawn) the Potency was inconclusive [quencher, partial curve]. In the case of `O=C(COC(=O)c1ccc(Br)o1)Nc1ccc(S(=O)(=O)N2CCCC2)cc1`, the “fluorescence change” value is reported as inactive: -4.37%. In the case of `O=C(N/N=C1/C[C@@H](O)[C@@H](O)[C@@H]2[C@@H]3C(=O)N(C4CCCCC4)C(=O)[C@H]3CC[C@@H]12)OCc1ccccc1`, the fluorescence change, negative = quenching is reported as inactive: -0.0362% [at 11.2 µM]. With `CCOc1ccc(NC2SC(=O)N(Cc3ccccc3)C2=O)cc1` (stereo not drawn) the Potency was inconclusive [falling, full curve, poor fit]. In the case of `COc1cccc2c1cc1c(=O)n(CC(=O)N3CCN(c4cccc(C(F)(F)F)c4)CC3)nc(C)n12`, the Potency is reported as inconclusive [falling, full curve, poor fit]. For `CCOc1ccccc1CNC(=O)C1CCN(S(=O)(=O)c2c(C)noc2/C=C/c2ccccc2F)CC1`, the “fluorescence change” value was inactive: -0.236%. For `CCn1c(C(=O)NCc2ccccc2OC)cc2sccc21`, the Potency was inconclusive [falling, full curve, poor fit]. In the case of `Cc1ccc(S(=O)(=O)n2nc(-c3ccc(Cl)cc3)nc2NCc2ccccc2)cc1`, the Potency is reported as active: 1000 µM [quencher]. With `COc1ccc(NC(=O)c2nn(C)c3c2CS(=O)(=O)c2ccccc2-3)cc1Cl` the Potency was inconclusive [quencher, partial curve]. In the case of `C=CCN1C=CC(=C/C=C(/C#N)C(=O)OCC)C=C1`, the Potency is reported as inconclusive [fluorescent, partial curve]. With `Cn1c(=O)c2sccc2n2c(CCC(=O)N3CCN(c4ccc(F)cc4)CC3)nnc12` the “fluorescence change” value was inactive: 10.2%. In the case of `CCOc1ccc(-c2cn3c(n2)sc2cc(C(=O)NCCc4ccc(OC)cc4OC)ccc23)cc1`, the Potency is reported as inconclusive [quencher, full curve]. For `CC1CN(C(=O)CCC(=O)NCc2cccc(Cl)c2)c2ccccc2S1` (stereo not drawn), the Potency was active: 28.2 µM [quencher]. With `O=C1Nc2ccccc2SC(c2ccccc2)C1O` (stereo not drawn) the Potency was inconclusive [quencher, partial curve]. In the case of `COc1ccc(NC(=O)Nc2ccc(OC)c(OC)c2)c([N+](=O)[O-])c1`, the Potency is reported as inconclusive [falling, partial curve, poor fit]. In the case of `CCN(CC)S(=O)(=O)c1ccc(NC(=O)c2cc3ccc4cccnc4c3[nH]2)cc1`, the “fluorescence change” value is reported as inactive: 1%. For `COc1ccc(-c2cn3nc(N4CCC(C(=O)Nc5ccccc5OC)CC4)sc3n2)cc1`, the Potency was inconclusive [quencher, full curve]. For `COc1ccc(C)cc1NC(=O)N1CCC(CN2CCOCC2)CC1`, the Potency was inconclusive [quencher, full curve]. For `Cc1cccc(C)c1NC(=O)CSc1nnc(-c2ccco2)c(-c2ccco2)n1`, the Potency was inconclusive [quencher, partial curve]. For `O=C(Nc1nc2ccccc2s1)c1cc(-c2ccco2)nc2ccccc12`, the Potency was inconclusive [falling, full curve, poor fit]. In the case of `Cc1nn2c(C)c(C(=O)NCCc3ccccc3)cnc2c1-c1ccccc1`, the Potency is reported as inconclusive [falling, full curve, poor fit].
